# The other results are listed elsewhere or left out.
# B1: SLP (Clostridium difficile), Q183M8 (protein)
# chain: MATTGTQGYTVVKNDWKKAVKQLQDGLKDNSIGKITVSFNDGVVGEVAPKSANKKADRDAAAEKLYNLVNTQLDKLGDGDYVDFSVDYNLENKIITNQADAEAIVTKLNSLNEKTLIDIATKDTFGMVSKTQDSEGKNVAATKALKVKDVATFGLKSGGSEDTGYVVEMKAGAVEDKYGKVGDSTAGIAINLPSTGLEYAGKGTTIDFNKTLKVDVTGGSTPSAVAVSGFVTKDDTDLAKSGTINVRVINAKEESIDIDASSYTSAENLAKRYVFDPDEISEAYKAIVALQNDGIESNLVQLVNGKYQVIFYPEGKRLETKSLEHHHHHH
# Assays:
# Test in all cases: glycan array binding signal (z-score within array); higher = stronger binding
# Details in all cases: glycan notation: IUPAC condensed, linker removed
# [1] = target: Gal(a1-3)Gal(b1-3)GlcNAc
# Summary of the method: (§1)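 Negative Z-scores can be read as non-binding. The Z-score is calculated within each array and then averaged across arrays of one protein sequence at different concentrations or buffers and across linkers. Arrays, 3228 in all, were curated from the Consortium for Functional Glycomics database and kept only where the protein sequence was available.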
# [2] = target: Gal(a1-3)Gal(b1-3)GlcNAc(b1-2)Man(a1-3)[Gal(a1-3)Gal(b1-3)GlcNAc(b1-2)Man(a1-6)]Man(b1-4)GlcNAc(b1-4)GlcNAc
# Summary of the method: as §1
# [3] = target: Gal(a1-3)Gal(b1-3)[Fuc(a1-4)]GlcNAc(b1-2)Man(a1-3)[Gal(a1-3)Gal(b1-3)[Fuc(a1-4)]GlcNAc(b1-2)Man(a1-6)]Man(b1-4)GlcNAc(b1-4)GlcNAc
# Summary of the method: as §1
# [4] = target: Gal(a1-3)Gal(b1-4)Glc
# Summary of the method: as §1
# [5] = target: Gal(a1-3)Gal(b1-4)GlcNAc
# Summary of the method: as §1
# [6] = target: Gal(a1-3)Gal(b1-4)GlcNAc(b1-3)GalNAc
# Summary of the method: as §1
# [7] = target: Gal(a1-3)Gal(b1-4)[Fuc(a1-3)]GlcNAc
# Summary of the method: as §1
# [8] = target: Gal(a1-3)Gal(b1-4)[Fuc(a1-3)]GlcNAc(b1-2)Man(a1-3)[Gal(a1-3)Gal(b1-4)[Fuc(a1-3)]GlcNAc(b1-2)Man(a1-6)]Man(b1-4)GlcNAc(b1-4)GlcNAc
# Summary of the method: as §1
# [9] = target: Gal(a1-3)GalNAc
# Summary of the method: as §1
# [10] = target: Gal(a1-3)[Gal(a1-4)]Gal(b1-4)GlcNAc
# Summary of the method: as §1
# [11] = target: Gal(a1-4)Gal(b1-3)GlcNAc(b1-2)Man(a1-3)[Gal(a1-4)Gal(b1-3)GlcNAc(b1-2)Man(a1-6)]Man(b1-4)GlcNAc(b1-4)GlcNAc
# Summary of the method: as §1
# [12] = target: Gal(a1-4)Gal(b1-4)Glc
# Summary of the method: as §1
# [13] = target: Gal(a1-4)Gal(b1-4)GlcNAc
# Summary of the method: as §1
# [14] = target: Gal(a1-4)Gal(b1-4)GlcNAc(b1-2)Man(a1-3)[Gal(a1-4)Gal(b1-4)GlcNAc(b1-2)Man(a1-6)]Man(b1-4)GlcNAc(b1-4)GlcNAc
# Summary of the method: as §1
# [15] = target: Gal(a1-4)Gal(b1-4)GlcNAc(b1-3)Gal(b1-4)Glc
# Summary of the method: as §1
# [16] = target: Gal(a1-4)GlcNAc
# Summary of the method: as §1
# [17] = target: Gal(a1-6)Glc
# Summary of the method: as §1
# [18] = target: Gal(b1-2)Gal
# Summary of the method: as §1
# [19] = target: Gal(b1-3)Gal
# Summary of the method: as §1
# [20] = target: Gal(b1-3)Gal(b1-4)GlcNAc
# Summary of the method: as §1
# [21] = target: Gal(b1-3)Gal(b1-4)GlcNAc(b1-2)Man(a1-3)[Gal(b1-3)Gal(b1-4)GlcNAc(b1-2)Man(a1-6)]Man(b1-4)GlcNAc(b1-4)GlcNAc
# Summary of the method: as §1
# [22] = target: Gal(b1-3)GalNAc
# Summary of the method: as §1
# [23] = target: Gal(b1-3)GalNAc(a1-3)[Fuc(a1-2)]Gal(b1-4)Glc
# Summary of the method: as §1
# [24] = target: Gal(b1-3)GalNAc(a1-3)[Fuc(a1-2)]Gal(b1-4)GlcNAc
# Summary of the method: as §1
# [25] = target: Gal(b1-3)GalNAc(b1-3)Gal(a1-4)Gal(b1-4)Glc
# Summary of the method: as §1
# [26] = target: Gal(b1-3)GalNAc(b1-4)Gal(b1-4)Glc
# Summary of the method: as §1
# [27] = target: Gal(b1-3)GalNAc(b1-4)[Neu5Ac(a2-3)]Gal(b1-4)Glc
# Summary of the method: as §1
# [28] = target: Gal(b1-3)GlcNAc
# Summary of the method: as §1
# [29] = target: Gal(b1-3)GlcNAc(a1-6)Gal(b1-4)GlcNAc
# Summary of the method: as §1
# [30] = target: Gal(b1-3)GlcNAc(b1-2)Man(a1-3)[Gal(b1-3)GlcNAc(b1-2)Man(a1-6)]Man(b1-4)GlcNAc(b1-4)GlcNAc
# Summary of the method: as §1
# [31] = target: Gal(b1-3)GlcNAc(b1-2)Man(a1-3)[Gal(b1-3)GlcNAc(b1-2)Man(a1-6)]Man(b1-4)GlcNAc(b1-4)[Fuc(a1-6)]GlcNAc
# Summary of the method: as §1
# [32] = target: Gal(b1-3)GlcNAc(b1-3)Gal(b1-3)GlcNAc
# Summary of the method: as §1
# [33] = target: Gal(b1-3)GlcNAc(b1-3)Gal(b1-4)Glc
# Summary of the method: as §1
# [34] = target: Gal(b1-3)GlcNAc(b1-3)Gal(b1-4)GlcNAc
# Summary of the method: as §1
# [35] = target: Gal(b1-3)GlcNAc(b1-3)Gal(b1-4)GlcNAc(b1-6)[Gal(b1-3)GlcNAc(b1-3)]Gal(b1-4)Glc
# Summary of the method: as §1
# [36] = target: Gal(b1-3)GlcNAc(b1-3)Gal(b1-4)[Fuc(a1-3)]GlcNAc(b1-6)[Gal(b1-3)GlcNAc(b1-3)]Gal(b1-4)Glc
# Summary of the method: as §1
# [37] = target: Gal(b1-3)GlcNAc(b1-3)GalNAc
# Summary of the method: as §1
# [38] = target: Gal(b1-3)GlcNAc(b1-6)Gal(b1-4)GlcNAc
# Summary of the method: as §1
binder,measurement,setting,value
B1,glycan array binding signal (z-score),[1],-0.191
same,glycan array binding signal (z-score),[2],-0.046
same,glycan array binding signal (z-score),[3],12.1
same,glycan array binding signal (z-score),[4],-0.181
same,glycan array binding signal (z-score),[5],-0.178
same,glycan array binding signal (z-score),[6],-0.163
same,glycan array binding signal (z-score),[7],-0.186
same,glycan array binding signal (z-score),[8],-0.125
same,glycan array binding signal (z-score),[9],-0.169
same,glycan array binding signal (z-score),[10],-0.137
same,glycan array binding signal (z-score),[11],-0.087
same,glycan array binding signal (z-score),[12],-0.185
same,glycan array binding signal (z-score),[13],-0.156
same,glycan array binding signal (z-score),[14],0.537
same,glycan array binding signal (z-score),[15],-0.153
same,glycan array binding signal (z-score),[16],-0.172
same,glycan array binding signal (z-score),[17],-0.14
same,glycan array binding signal (z-score),[18],-0.185
same,glycan array binding signal (z-score),[19],-0.154
same,glycan array binding signal (z-score),[20],-0.199
same,glycan array binding signal (z-score),[21],-0.17
same,glycan array binding signal (z-score),[22],-0.166
same,glycan array binding signal (z-score),[23],-0.138
same,glycan array binding signal (z-score),[24],-0.122
same,glycan array binding signal (z-score),[25],-0.155
same,glycan array binding signal (z-score),[26],-0.022
same,glycan array binding signal (z-score),[27],-0.141
same,glycan array binding signal (z-score),[28],-0.181
same,glycan array binding signal (z-score),[29],-0.186
same,glycan array binding signal (z-score),[30],-0.082
same,glycan array binding signal (z-score),[31],-0.16
same,glycan array binding signal (z-score),[32],-0.209
same,glycan array binding signal (z-score),[33],3.65
same,glycan array binding signal (z-score),[34],-0.207
same,glycan array binding signal (z-score),[35],-0.178
same,glycan array binding signal (z-score),[36],-0.152
same,glycan array binding signal (z-score),[37],-0.141
same,glycan array binding signal (z-score),[38],-0.201

# From the supplement of paper PMC8728848
